# Source: publication PMC6212790
# This is one part of the list. At the low end of the ranking the order means little.
# Target: T1, GST-Rok-C97-191 (UniProt O34857)
# T1 sequence: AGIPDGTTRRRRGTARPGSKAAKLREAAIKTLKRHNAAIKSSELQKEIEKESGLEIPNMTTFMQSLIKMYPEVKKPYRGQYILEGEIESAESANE
# Assay: protein binding microarray;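 note: rank score from −0.5 (least bound) to 0.5 (best bound)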
# Settings: Rok is a gene silencer of Bacillus subtilis; high values mean tight binding; most listed sequences are background and not binding sites; double strand, one strand shown
row,Sequence,binding signal [E-score]
1,ATTATCCG,0.0272
2,ACTGGGAG,-0.151
3,AAAAGGTA,0.293
4,AAAGACTT,-0.00647
5,CCCGGTAA,-0.0362
6,GGCATGCA,-0.192
7,CGTAATCC,-0.205
8,GTGCGCTA,-0.0229
9,ACTAACTC,0.125
10,AAAAAGAA,0.0124
11,AGATTTCC,0.196
12,ATCCCTGA,-0.205
13,ATAAACCC,0.0979
14,CAATGACC,-0.175
15,AACAGCTG,-0.0197
16,AAAACTGT,0.0809
17,AAGCGCAT,-0.0193
18,ATCGGGTA,0.21
19,AATCTCAG,-0.0322
20,GCCCGTGA,-0.196
21,GAATAGCA,-0.0833
22,CGGGTTAA,-0.122
23,ATACCCCG,-0.111
24,GGGCCCCA,-0.293
25,GCAAATAA,0.158

row,Sequence,binding signal [E-score]
1,CAGATGGA,-0.12
2,ATAGAATA,0.354
3,CTACACGA,0.0662
4,CGGCTTGC,-0.137
5,AGGTGGCG,0.0312
6,CCAGGCCG,-0.0324
7,AGGGCTCG,-0.236
8,GTAAGTCA,0.00791
9,AGGTAGAG,0.118
10,TAGACTCA,-0.0392
11,AACCTACC,0.232
12,AGCTTCTG,-0.0648
13,ATTAACTG,0.214
14,GCTAGTTA,0.284
15,CCCCAAAC,-0.0481
16,CTCACATC,-0.132
17,ATTGGGCA,-0.172
18,ACGGCGGC,-0.213
19,CTAACTGC,-0.00452
20,CTAGGAAC,-0.0183
21,CACCTCCA,-0.255
22,ACCGGGTA,0.103
23,GACACCTC,-0.176
24,CGAGTTAA,0.148
25,TAGAGGCA,-0.0245

row,Sequence,binding signal [E-score]
1,CGCACATC,0.00746
2,ACGCATCC,-0.149
3,AGAGGGAA,-0.173
4,CCGAGGTA,0.137
5,CATTTCCC,-0.214
6,GAGTTAGC,0.0102
7,AAATCGGT,-0.0067
8,AAAATGGC,0.0616
9,GCCGGACA,0.0879
10,CGGTACCG,0.0415
11,GGGCACCC,-0.354
12,AGAATGCA,0.038
13,ATCTTCGA,0.0445
14,ACTATTAC,0.4
15,GCTATCCA,0.0235
16,AAACTGTG,-0.0049
17,CACCGTCA,-0.156
18,AGCACTGG,-0.253
19,AGCGCGGG,-0.317
20,CCCTGCAC,-0.227
21,ATCTTAAC,0.274
22,ATCCCTCA,-0.0288
23,AGCGATGG,-0.149
24,ACTAGCTG,0.212
25,ACAGTTAA,0.093

row,Sequence,binding signal [E-score]
1,CAAAGCAC,-0.0357
2,AATTCTAG,0.325
3,CCTCGACG,-0.161
4,GTCAGCAC,-0.267
5,GCATCTCA,-0.0557
6,AGTCGATC,-0.00304
7,TGCTCCAA,-0.148
8,GCCGTCCA,-0.136
9,GATCTGGA,-0.159
10,ACTTCAAC,0.0391
11,AAGATGAG,0.0366
12,ACCAATGG,-0.00677
13,CAACTCCA,-0.0587
14,CCGCACAC,-0.0305
15,GTGCATCA,-0.03
16,AGCCTACC,-0.0592
17,AGAATAAT,0.213
18,CTAAATGA,-0.0412
19,CCACGACG,-0.00537
20,AGTAAGCA,0.0637
21,AGGTAACG,-0.039
22,GGGAAACC,-0.209
23,AATCCACC,-0.195
24,ATTATTCC,0.253
25,AAGATCCA,-0.156

row,Sequence,binding signal [E-score]
1,ATGCTTTA,0.0435
2,ATGGTCAC,0.00474
3,CGTGATCA,0.103
4,AGACATTG,-0.107
5,GTAAACGA,-0.119
6,GACCAAGC,-0.178
7,AAATTCAC,0.12
8,GCTAGAAC,0.18
9,CCGGATCG,-0.171
10,GTAATATA,0.335
11,CGGCCATC,-0.272
12,CCGCCCCG,-0.352
13,GCCGGTGA,-0.195
14,GGAACATA,0.0302
15,AGGCGACA,-0.159
16,CCCGAGCC,-0.207
17,CCCAACGA,-0.243
18,ACTAGATA,0.403
19,AGTATGGA,-0.00621
20,CACGCCGC,-0.263
21,GGATGAAC,0.0137
22,ATGGTTGA,-0.213
23,CATGGAAA,0.0212
24,CGGTTAGA,0.0858
25,AGCTTCAC,0.0369

row,Sequence,binding signal [E-score]
1,CGTACTAA,0.231
2,TGAGGACA,0.0106
3,CACAGGAG,-0.175
4,CTACGTCC,0.158
5,GCAGGCTA,-0.198
6,GAACTAAC,0.104
7,TAATTAAA,0.244
8,CCCATGGG,-0.301
9,GACGCAAC,0.178
10,GTCGCAAA,-0.0493
11,CATAAGTC,-0.0259
12,CGGTACAG,-0.00773
13,CATCGCAC,-0.108
14,CGGTCTAG,-0.0476
15,CATTATCG,0.121
16,ATCGCGTG,-0.192
17,AGACCATA,0.123
18,GAATACGC,-0.102
19,CTAGAGGA,-0.154
20,AAGTTCAG,0.0688
21,ACGCTACA,0.123
22,AGCTTGCG,-0.087
23,CCTTAAGA,-0.0838
24,CTATGCCC,-0.171
25,AATGCCCT,0.0279

row,Sequence,binding signal [E-score]
1,GCTCGGCC,-0.227
2,GGTTCTTA,-0.0251
3,CCACCGGA,0.0302
4,ACACGACA,0.0427
5,ACCTCGCC,-0.189
6,TGATTACA,0.129
7,ATGAGTTG,-0.00844
8,GATCCTGC,-0.00642
9,ACGCTGAC,-0.0879
10,TCTACAAA,0.133
11,CGAGCAGA,-0.23
12,GAGCTCAC,-0.0849
13,TATTTCGA,0.165
14,CGCGCGCA,0.114
15,ACGAGTAC,0.195
16,GGAACAAA,0.0445
17,CACTCAGA,-0.218
18,AGCACGTC,-0.0472
19,GAATTTCC,0.13
20,ACGTCCCC,-0.276
21,CGCCAATC,-0.0908
22,GCCCCGAA,-0.136
